According to PubChem BioAssay AID2451 (National Center for Advancing Translational Sciences (NCATS), 2010):
Where “and” joins values, the source holds several entries; their conditions need not be identical. Identical values can stand only once. In all, about 290,000 compounds went through this assay and about 2,100 (0.72%) were called active. Inconclusive means that the source gave no clear call. Such entries were picked first, then a sample of the others. Calls come from the whole dose curve; as a rule, active = well fitted inhibition curve with a large enough effect; inconclusive = small, poorly fitted or top-dose-only effect, or effect the other way; inactive = flat fitted curve, though single readings scatter. A potency beside an inconclusive call is a rough fit, not a confirmed value.
% is set by controls: 0 for no effect and ±100 for the full control effect; potency is the fitted concentration of half-maximal effect; tags give direction and shape of the fitted curve.
Note: nearly all actives have a fitted effect of over 55% in size.

What follows are molecules tested against Fructose-bisphosphate aldolase (Giardia intestinalis (strain ATCC 50803 / WB clone C6)) (UniProt A8B2U2) (assay: qHTS Assay for Inhibitors of Fructose-1,6-bisphosphate Aldolase from Giardia Lamblia). Settings: purified Giardia FBPA; activity, negative = inhibition: at 59.6 µM (top of the series) unless noted.
UniProt A8B2U2, sequence (A8B2U2 whole entry, looked up): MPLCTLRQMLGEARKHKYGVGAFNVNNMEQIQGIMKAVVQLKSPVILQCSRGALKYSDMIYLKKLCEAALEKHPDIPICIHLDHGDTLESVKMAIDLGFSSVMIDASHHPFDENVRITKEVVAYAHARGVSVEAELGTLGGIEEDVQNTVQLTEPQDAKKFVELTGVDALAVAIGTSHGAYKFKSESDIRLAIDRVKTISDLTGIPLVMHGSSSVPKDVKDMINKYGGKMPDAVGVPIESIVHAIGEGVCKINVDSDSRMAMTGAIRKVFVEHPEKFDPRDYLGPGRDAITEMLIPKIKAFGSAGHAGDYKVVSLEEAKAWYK
Procedure, shortened: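 40 nM FBPA preincubated 10 min at RT with compound (up to 57.5 uM final), then substrate plus GAPDH/TPI/NAD/arsenate coupling and diaphorase/resazurin added. Fluorescence read after 20 min at RT, 525/598 nm.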
With `Cc1ccc(C(C)(C)C)c(OCCCn2ccnc2)c1` the Potency was inconclusive: 22.3 µM [inhibitor, partial curve].
`Cn1c(=O)[nH]c(=O)c2[nH]cnc21` was tested, and the Potency was inconclusive: 15.8 µM [inhibitor, partial curve].
In the case of `CCOc1cc(N2CCOCC2)c(OCC)cc1NC(=O)CSc1cccc[n+]1[O-]`, the Potency is reported as inconclusive: 6.29 µM [inhibitor, full curve].
`COC/C=C/C1=CC2=CC(=O)C(C)(OC(=O)c3cnc4ccccc4n3)C(=O)C2=CN1Cc1ccco1` (centres undefined) was tested, and the Potency was inconclusive: 0.561 µM [inhibitor, full curve].
`Cc1nc(SCC(O)CCl)c([N+](=O)[O-])[nH]1` (centres undefined) was tested, and the Potency was inconclusive: 8.89 µM [inhibitor, partial curve].
In the case of `NNc1nc2cccnc2n(CCNc2ncc(C(F)(F)F)cc2Cl)c1=O`, the Potency is reported as inconclusive: 22.3 µM [inhibitor, single point].
With `NC(=S)Cc1nc2n(n1)Cc1ccccc1-2` the Potency was inconclusive: 14.1 µM [inhibitor, partial curve].
`Cc1cccc(N2C(=O)CSC2c2cccnc2)c1` (centres undefined) was tested, and the “activity, negative = inhibition” value was inactive: 0.73%.
For `CC1CCCC(C)N1C(=O)CSc1nc2ccccc2c(=O)[nH]1` (centres undefined), the “activity, negative = inhibition” value was inactive: 1.78%.
In the case of `COc1ccc(-c2cn3c4c(sc3n2)CCCC4)cc1`, the Potency is reported as inconclusive: 15.8 µM [inhibitor, single point].
In the case of `Cc1ccc(-c2c3c(=O)n(C)c(=O)n(C)c3cn2-c2ccccc2O)cc1`, the Potency is reported as inconclusive: 39.8 µM [inhibitor, single point].
`CCN(CC)CCN(C(=O)c1cc2ccccc2cc1OC)c1nc2ccc(OC)cc2s1` was tested, and the Potency was inconclusive: 20 µM [inhibitor, single point].
`CN(C)/C=N/c1ncc(C(=O)c2ccc(-c3ccccc3)cc2)s1` was tested, and the “activity, negative = inhibition” value was inactive: 0.258%.
With `N#Cc1c(NC(=O)c2cnccn2)sc2c1CCCC2` the Potency was inconclusive: 12.6 µM [inhibitor, partial curve].
In the case of `O=C(NC1CCCCC1)c1cc(-c2cccc(Cl)c2)on1`, the “activity, negative = inhibition” value is reported as inactive: 3.81%.
With `COc1ccc(OCC(O)CNCCOc2ccccc2OC)c(C(C)(C)C)c1` (centres undefined) the Potency was inconclusive: 10 µM [inhibitor, partial curve].
In the case of `CC(C)(C)n1[nH]c2c3c(ccc2c1=O)C(=O)c1ccccc1C3=O`, the Potency is reported as inconclusive: 2.51 µM [inhibitor, full curve].
With `COc1ccc2c(c1)c(CC(=O)O)c(C)n2C(=O)c1ccc(Cl)cc1` the Potency was inconclusive: 35.4 µM [activator, partial curve] and inconclusive: 22.3 µM [activator, single point] and inconclusive: 17.7 µM [activator, single point].
`COc1ccc(C(=O)COc2ccccc2C#N)cc1` was tested, and the “activity, negative = inhibition” value was inactive: -3.25%.
For `CCOC(=O)c1sc(NC(=O)CN2CCN(c3ccc(OC)cc3)CC2)nc1C`, the Potency was inconclusive: 7.94 µM [inhibitor, partial curve].
In the case of `C=CC(=O)NCCCc1cc(C(C)(C)C)c(O)c(C(C)(C)C)c1`, the “activity, negative = inhibition” value is reported as inactive: -3.6%.
`COc1ccc(CCNCc2ccsc2)cc1OC` was tested, and the Potency was inconclusive: 25.1 µM [inhibitor, partial curve].
In the case of `O=C(O)c1cc([N+](=O)[O-])c(NCCC2=CCCCC2)c([N+](=O)[O-])c1`, the Potency is reported as inconclusive: 22.3 µM [activator, single point].
In the case of `CCOCCCNC(=O)C1CCN(Cc2cccc(OCc3ccccc3)c2)CC1`, the Potency is reported as inconclusive: 20 µM [inhibitor, partial curve].
With `COC(=O)CSc1nnc(C)c(=O)[nH]1` the “activity, negative = inhibition” value was inactive: -2.79%.
For `O=C(/C=C\c1ccccc1)Oc1cccc2cccnc12`, the Potency was inconclusive: 22.3 µM [inhibitor, single point].
With `O=C(O)c1ccc(Br)c(S(=O)(=O)N2CCCC2)c1` the Potency was inconclusive: 22.3 µM [activator, partial curve].
`O=C(NC(=S)Nc1ccc(Cl)c(C(=O)O)c1)c1cncc(Br)c1` was tested, and the Potency was inconclusive: 14.1 µM [inhibitor, partial curve].
`COc1cc(/C=C(\C#N)C(=O)N2CCOCC2)cc(Br)c1O` was tested, and the Potency was inconclusive: 17.7 µM [inhibitor, partial curve].
In the case of `CNc1ccc(Br)cc(C(=O)/C=C/c2ccc3c(c2)OCO3)c1=O`, the Potency is reported as inconclusive: 17.7 µM [inhibitor, partial curve].
With `CC(C)n1c(C(O)c2ccc3c(c2)OCO3)nc2ccccc21` (centres undefined) the “activity, negative = inhibition” value was inactive: 19.3%.
`O=C(NCCc1ccccc1)/C(=C/c1ccco1)c1ccccc1` was tested, and the Potency was inconclusive: 7.92 µM [inhibitor, full curve].
`Cc1[nH]c2ccc(O)cc2c1CCN` was tested, and the Potency was active: 3.54 µM.
With `O=C(NC(=S)Nc1ccccc1[N+](=O)[O-])c1ccccc1` the Potency was inconclusive: 15.8 µM [inhibitor, partial curve].
With `C=CCn1c(=O)c(C(=O)Nc2ncccc2O)c(O)c2ccccc21` the Potency was inconclusive: 39.8 µM [inhibitor, single point].
With `O=[N+]([O-])c1cc(-c2ccc(C(=S)N3CCOCC3)o2)ccc1Cl` the Potency was inconclusive: 5.61 µM [inhibitor, partial curve].
For `COc1cc(C(=O)NC(=S)NNC(=O)[C@H]2C[C@@H]2c2ccccc2)cc(OC)c1OC`, the Potency was inconclusive: 22.3 µM [activator, single point].
`O=C(O)c1cc(=O)cc(C(=O)O)[nH]1` was tested, and the Potency was inconclusive: 17.7 µM [inhibitor, single point].
In the case of `COc1ccc(OCCN(C)CC(=O)Nc2c(C)cccc2C)cc1`, the Potency is reported as active: 14.1 µM.
With `CCCS(=O)(=O)c1ncc(Cl)c(C(=O)Nc2ccc(S(=O)(=O)Nc3ncccn3)cc2)n1` the “activity, negative = inhibition” value was inactive: -25.1%.
With `CCC(C)n1c(O)c(C(c2ccccn2)c2c(O)n(C(C)CC)c(=S)[nH]c2=O)c(=O)[nH]c1=S` (centres undefined) the Potency was inconclusive: 17.7 µM [inhibitor, single point].
For `COc1cc(/C=N/NC2=NS(=O)(=O)c3ccccc32)ccc1OC(C)=O`, the Potency was active: 11.2 µM.
In the case of `O=c1ccc2c(o1)/C(=C/C=C(Cl)Cl)CCC2`, the Potency is reported as inconclusive: 44.6 µM [inhibitor, single point].
For `Cc1ccc(N2C(=O)[C@@H]3[C@H](C2=O)C2c4ccccc4C=CN2[C@@H]3C(=O)c2ccco2)cc1` (some centres undefined), the Potency was inconclusive: 2.23 µM [inhibitor, full curve].
